Measurements: the supplement of paper PMC8728848
The list shows a part of the results.

Columns and labels:
Experiment in all cases: glycan array binding signal (z-score within array); higher = stronger binding
Details in all cases: glycan notation: IUPAC condensed, linker removed
[1] = biological target: GlcNAc(b1-3)Gal(b1-4)Glc
Procedure, shortened: (§1)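 Glycan array binding is given as a within-array Z-score, which can be read as non-binding when negative. The arrays, 3228 of them, came from the Consortium for Functional Glycomics database and were retained only where the protein sequence was available. Z-scores were averaged across arrays of the same protein sequence at different concentrations or buffers and across linkers.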

[2] = biological target: GlcNAc(b1-3)Gal(b1-4)GlcNAc
Procedure, shortened: as §1

[3] = biological target: GlcNAc(b1-3)Gal(b1-4)GlcNAc(b1-3)Gal(b1-4)GlcNAc
Procedure, shortened: as §1

[4] = biological target: GlcNAc(b1-3)GalNAc
Procedure, shortened: as §1

[5] = biological target: GlcNAc(b1-3)Man
Procedure, shortened: as §1

[6] = biological target: GlcNAc(b1-3)[GlcNAc(b1-4)][GlcNAc(b1-6)]GlcNAc
Procedure, shortened: as §1

[7] = biological target: GlcNAc(b1-3)[GlcNAc(b1-6)]Gal(b1-4)GlcNAc
Procedure, shortened: as §1

[8] = biological target: GlcNAc(b1-3)[GlcNAc(b1-6)]GalNAc
Procedure, shortened: as §1

[9] = biological target: GlcNAc(b1-4)Gal(b1-4)GlcNAc
Procedure, shortened: as §1

[10] = biological target: GlcNAc(b1-4)GlcNAc
Procedure, shortened: as §1

[11] = biological target: GlcNAc(b1-4)GlcNAc(b1-4)GlcNAc
Procedure, shortened: as §1

[12] = biological target: GlcNAc(b1-4)GlcNAc(b1-4)GlcNAc(b1-4)GlcNAc(b1-4)GlcNAc
Procedure, shortened: as §1

[13] = biological target: GlcNAc(b1-4)GlcNAc(b1-4)GlcNAc(b1-4)GlcNAc(b1-4)GlcNAc(b1-4)GlcNAc
Procedure, shortened: as §1

[14] = biological target: GlcNAc(b1-4)[GlcNAc(b1-6)]GalNAc
Procedure, shortened: as §1

[15] = biological target: GlcNAc(b1-6)Gal(b1-4)GlcNAc
Procedure, shortened: as §1

[16] = biological target: GlcNAc(b1-6)GalNAc
Procedure, shortened: as §1

[17] = biological target: GlcNAc3Prop(b1-4)GlcNAc
Procedure, shortened: as §1

[18] = biological target: Kdn(a2-3)Gal(b1-3)GlcNAc
Procedure, shortened: as §1

[19] = biological target: Kdn(a2-3)Gal(b1-4)GlcNAc
Procedure, shortened: as §1

[20] = biological target: Man(a1-2)Man(a1-2)Man(a1-3)Man
Procedure, shortened: as §1

[21] = biological target: Man(a1-2)Man(a1-2)Man(a1-6)[Man(a1-3)]Man
Procedure, shortened: as §1

[22] = biological target: Man(a1-2)Man(a1-3)Man
Procedure, shortened: as §1

[23] = biological target: Man(a1-2)Man(a1-3)[Man(a1-2)Man(a1-6)]Man
Procedure, shortened: as §1

[24] = biological target: Man(a1-2)Man(a1-3)[Man(a1-2)Man(a1-6)]Man(a1-6)[Man(a1-2)Man(a1-2)Man(a1-3)]Man
Procedure, shortened: as §1

[25] = biological target: Man(a1-2)Man(a1-3)[Man(a1-2)Man(a1-6)]Man(a1-6)[Man(a1-2)Man(a1-2)Man(a1-3)]Man(b1-4)GlcNAc(b1-4)GlcNAc
Procedure, shortened: as §1

[26] = biological target: Man(a1-2)Man(a1-3)[Man(a1-6)]Man(a1-6)[Man(a1-2)Man(a1-3)]Man(b1-4)GlcNAc(b1-4)GlcNAc
Procedure, shortened: as §1

[27] = biological target: Man(a1-2)Man(a1-6)[Man(a1-3)]Man(a1-6)[Man(a1-2)Man(a1-2)Man(a1-3)]Man
Procedure, shortened: as §1

[28] = biological target: Man(a1-2)Man(a1-6)[Man(a1-3)]Man(a1-6)[Man(a1-2)Man(a1-2)Man(a1-3)]Man(b1-4)GlcNAc(b1-4)GlcNAc
Procedure, shortened: as §1

[29] = biological target: Man(a1-3)[Man(a1-6)]Man
Procedure, shortened: as §1

[30] = biological target: Man(a1-3)[Man(a1-6)]Man(a1-6)[Man(a1-2)Man(a1-3)]Man(b1-4)GlcNAc(b1-4)GlcNAc
Procedure, shortened: as §1

[31] = biological target: Man(a1-3)[Man(a1-6)]Man(a1-6)[Man(a1-3)]Man
Procedure, shortened: as §1

[32] = biological target: Man(a1-3)[Man(a1-6)]Man(a1-6)[Man(a1-3)]Man(b1-4)GlcNAc(b1-4)GlcNAc
Procedure, shortened: as §1

[33] = biological target: Man(a1-3)[Man(a1-6)]Man(b1-4)GlcNAc(b1-4)GlcNAc
Procedure, shortened: as §1

[34] = biological target: Man(a1-6)Man
Procedure, shortened: as §1

[35] = biological target: Man(b1-4)GlcNAc
Procedure, shortened: as §1

[36] = biological target: Neu5Ac(a2-3)Gal
Procedure, shortened: as §1

[37] = biological target: Neu5Ac(a2-3)Gal(b1-3)GalNAc
Procedure, shortened: as §1

[38] = biological target: Neu5Ac(a2-3)Gal(b1-3)GalNAc(b1-3)Gal(a1-4)Gal(b1-4)Glc
Procedure, shortened: as §1

[39] = biological target: Neu5Ac(a2-3)Gal(b1-3)GalNAc(b1-3)Gal(b1-4)GlcNAc
Procedure, shortened: as §1

[40] = biological target: Neu5Ac(a2-3)Gal(b1-3)GalNAc(b1-4)[Neu5Ac(a2-3)]Gal(b1-4)Glc
Procedure, shortened: as §1

[41] = biological target: Neu5Ac(a2-3)Gal(b1-3)GalNAc6S
Procedure, shortened: as §1

[42] = biological target: Neu5Ac(a2-3)Gal(b1-3)GlcNAc
Procedure, shortened: as §1

[43] = biological target: Neu5Ac(a2-3)Gal(b1-3)GlcNAc(b1-3)Gal(b1-3)GlcNAc
Procedure, shortened: as §1

[44] = biological target: Neu5Ac(a2-3)Gal(b1-3)GlcNAc6S
Procedure, shortened: as §1

[45] = biological target: Neu5Ac(a2-3)Gal(b1-3)[Fuc(a1-4)]GlcNAc
Procedure, shortened: as §1

B1: Surfactant Protein D (Human); Neck + Carbohydrate Recognition Domain (NCRD) (Homo sapiens) (protein)
chain: MLLFLLSALVLLTQPLGYLEAEMKTYSHRTMPSACTLVMCSSVESGLPGRDRDGREGPRGEKGDPGLPGAAGQAGMPGQAGPVGPKGDNGSVGEPGPKGDTGPSGPPGPPGVPGPAGREGALGKQGNIGPQGKPGPKGEAGPKGEVGAPGMQGSAGARGLAGPKGERGVPGERGVPGNTGAAGSAGAMGPQGSPGARGPPGLKGDKGIPGDKGAKGESGLPDVASLRQQVEALQGQVQHLQAAFSQYKKVELFPNGQSVGEKIFKTAQFVKPFTEAQLLCTQAGGQLASPRSAAENAALQQLVVAKNEAAFLSMTDSKTEGKFTYPTGESLVYSNWAPGEPNDDGGSEDCVEIFTNGKWNDRACGEKRLVVCEF
[1]
  glycan array binding signal (z-score): -0.21
[2]
  glycan array binding signal (z-score): -0.167
[3]
  glycan array binding signal (z-score): -0.149
[4]
  glycan array binding signal (z-score): -0.245
[5]
  glycan array binding signal (z-score): -0.233
[6]
  glycan array binding signal (z-score): -0.252
[7]
  glycan array binding signal (z-score): -0.244
[8]
  glycan array binding signal (z-score): -0.258
[9]
  glycan array binding signal (z-score): -0.274
[10]
  glycan array binding signal (z-score): -0.234
[11]
  glycan array binding signal (z-score): -0.24
[12]
  glycan array binding signal (z-score): 0.25
[13]
  glycan array binding signal (z-score): 0.127
[14]
  glycan array binding signal (z-score): -0.275
[15]
  glycan array binding signal (z-score): -0.163
[16]
  glycan array binding signal (z-score): -0.284
[17]
  glycan array binding signal (z-score): -0.269
[18]
  glycan array binding signal (z-score): -0.267
[19]
  glycan array binding signal (z-score): -0.264
[20]
  glycan array binding signal (z-score): 6.02
[21]
  glycan array binding signal (z-score): 5.46
[22]
  glycan array binding signal (z-score): 0.79
[23]
  glycan array binding signal (z-score): 4.89
[24]
  glycan array binding signal (z-score): 4.11
[25]
  glycan array binding signal (z-score): 1.01
[26]
  glycan array binding signal (z-score): 6.78
[27]
  glycan array binding signal (z-score): 4.85
[28]
  glycan array binding signal (z-score): 5.33
[29]
  glycan array binding signal (z-score): 0.203
[30]
  glycan array binding signal (z-score): 4.68
[31]
  glycan array binding signal (z-score): 3.08
[32]
  glycan array binding signal (z-score): 4.68
[33]
  glycan array binding signal (z-score): 1.08
[34]
  glycan array binding signal (z-score): 0.063
[35]
  glycan array binding signal (z-score): 0.329
[36]
  glycan array binding signal (z-score): -0.243
[37]
  glycan array binding signal (z-score): -0.171
[38]
  glycan array binding signal (z-score): -0.281
[39]
  glycan array binding signal (z-score): -0.261
[40]
  glycan array binding signal (z-score): -0.252
[41]
  glycan array binding signal (z-score): -0.228
[42]
  glycan array binding signal (z-score): -0.23
[43]
  glycan array binding signal (z-score): -0.198
[44]
  glycan array binding signal (z-score): -0.228
[45]
  glycan array binding signal (z-score): -0.281
